# Data published in PMC4336329 (PLoS ONE, 2015).
# About 14,000 (4.5%) of roughly 310,000 compounds showed an effect of 50% or more. The effect is printed as a negative number. This is one part of the list.
# Biological target: human ether-à-go-go-related gene (hERG) potassium channel (human, UniProt Q12809)
# Assay: primary screen, population patch clamp on CHO cells stably expressing hERG
# 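Further: peak tail current of the secondary pulse compared with the same well before compound.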
# Sequence of human ether-à-go-go-related gene (hERG) potassium channel (Q12809 whole entry, looked up): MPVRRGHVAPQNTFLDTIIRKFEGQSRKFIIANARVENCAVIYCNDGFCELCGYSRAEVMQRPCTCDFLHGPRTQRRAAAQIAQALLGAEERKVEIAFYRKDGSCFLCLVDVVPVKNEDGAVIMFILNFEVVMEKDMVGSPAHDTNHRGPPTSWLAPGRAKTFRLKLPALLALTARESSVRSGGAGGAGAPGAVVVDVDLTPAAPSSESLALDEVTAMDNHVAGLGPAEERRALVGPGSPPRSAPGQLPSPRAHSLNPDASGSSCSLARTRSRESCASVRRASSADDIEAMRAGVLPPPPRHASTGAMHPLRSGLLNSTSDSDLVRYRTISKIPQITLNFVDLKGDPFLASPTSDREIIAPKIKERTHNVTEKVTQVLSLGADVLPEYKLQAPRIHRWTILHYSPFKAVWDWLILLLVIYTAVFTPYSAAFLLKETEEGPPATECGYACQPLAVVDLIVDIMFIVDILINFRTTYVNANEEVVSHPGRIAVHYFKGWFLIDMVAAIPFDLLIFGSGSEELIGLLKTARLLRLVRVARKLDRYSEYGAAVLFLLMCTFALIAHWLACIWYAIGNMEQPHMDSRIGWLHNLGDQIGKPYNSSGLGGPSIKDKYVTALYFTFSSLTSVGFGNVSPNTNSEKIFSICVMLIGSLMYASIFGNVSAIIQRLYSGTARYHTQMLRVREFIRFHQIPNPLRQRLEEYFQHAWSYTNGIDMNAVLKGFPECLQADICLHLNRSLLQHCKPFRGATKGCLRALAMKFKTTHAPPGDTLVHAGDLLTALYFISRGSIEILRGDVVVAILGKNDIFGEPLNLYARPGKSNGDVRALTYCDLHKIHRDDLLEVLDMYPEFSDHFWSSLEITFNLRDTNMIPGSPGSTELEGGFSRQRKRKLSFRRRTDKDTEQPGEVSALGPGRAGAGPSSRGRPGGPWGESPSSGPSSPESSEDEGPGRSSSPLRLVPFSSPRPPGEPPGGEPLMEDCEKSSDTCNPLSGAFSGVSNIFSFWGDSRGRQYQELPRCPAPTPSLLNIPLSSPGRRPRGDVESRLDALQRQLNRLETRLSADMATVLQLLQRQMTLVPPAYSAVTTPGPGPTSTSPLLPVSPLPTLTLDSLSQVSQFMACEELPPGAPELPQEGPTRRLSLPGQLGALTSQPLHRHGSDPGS
row,Structure (SMILES),"hERG current change (%, negative = inhibition) at 10uM [%]"
1,Cc1ccnc(NC(=O)CCC(=O)N(CC(=O)NCc2ccccc2)Cc2ccc(F)cc2)c1,-21.8
2,CCCCCCCC(=O)NC1=NC(=O)C(C)(C)S1,8.81
3,CCOc1ccc(C(=O)COC(=O)c2nn(CC)c(=O)c3ccccc23)cc1,-16.8
4,CC(=O)Nc1ccc(NC(=O)CSc2nnc(C3CC3)n2-c2ccccc2)cc1,17.7
5,CCCc1nn(C)c2c(=O)[nH]c(-c3ccccc3OCC)nc12,7.87
6,COc1ccc(CN(C)C(=O)c2cccc(S(=O)(=O)N3CCN(c4ccccc4)CC3)c2)c(OC)c1OC,-3.12
7,CC(C)(C)c1ccc(OC(=O)Nc2ccc(O)c(C(=O)O)c2)cc1,18.2
8,Cc1nnc(SCC(=O)Nc2cccnc2Cl)s1,-2.23
9,CCOc1ccc(C(=O)OC(C)CN2CCN(C)CC2)cc1.Cl (centres unmarked),-2.58
10,CC(=O)Nc1ccc(C)c([N+](=O)[O-])c1,12.2
11,COc1ccc(CCNC(=O)COC(=O)COc2ccc(Cl)cc2)cc1OC,7.05
12,NC(=O)COC(=O)c1ccc(S(=O)(=O)N2CCCCCC2)cc1,0.851
13,Cc1ccc2nc(NC(=O)c3ccccc3F)sc2c1,26.1
14,C[C@]12CCC(OC(=O)CCC(=O)O)CC1=CCC1C2CC[C@]2(C)C(=O)CCC12 (some centres unmarked),11.5
15,CC(=O)Nc1ccc(C(=O)NCC2(N3CCCCC3)CCCCC2)cc1,-14.2
16,Cc1ccc(NC(=O)c2nc[nH]c2C(=O)NCCCCCNC(=O)OC(C)(C)C)cc1,-15.2
17,COC(=O)c1cc(S(=O)(=O)N2CCN(c3cccc(C)c3C)CC2)c[nH]1,-0.92
18,Cn1c(CNC(=O)C(Cc2ccccc2)NC(=O)c2ccccc2)cc(=O)n(C)c1=O (centres unmarked),3.28
19,CCc1ccc(Nc2nnc(SCC(=O)Nc3cccnc3Cl)s2)cc1,-7.72
20,CCCCCCc1c(C)[nH]c2nc3ccccc3n2c1=O,20.7
21,Cn1c(=O)c2c(ncn2CC(=O)N/N=C/c2c[nH]c3ccccc23)n(C)c1=O,12.7
22,Nc1c(C(=O)Nc2ccccc2Cl)nnn1-c1ccc2c(c1)OCCO2,21
23,CCOC(=O)c1c(CSc2ccccc2)n(C)c2cc(Br)c(O)c(CN(C)C)c12,-68.5

row,Structure (SMILES),"hERG current change (%, negative = inhibition) at 10uM [%]"
1,Br.CN=c1sc(C(=O)Nc2cccc(Cl)c2)cc(=O)n1C,9.39
2,O=C1NC(=O)N(Cc2ccco2)C(=O)/C1=C/c1cccn1CCOc1ccccc1Cl,-1.23
3,Cc1cc(=O)[nH]c(SC/C=C/c2ccccc2)n1,14.3
4,CC(C)(C)OC(=O)N[C@@H](Cc1ccccc1)c1nnc(S(=O)(=O)Cc2cccc(F)c2)o1,18.8
5,CC(=O)c1cccc(NC(=O)c2cc(-n3cnnc3)ccc2Cl)c1,-1.42
6,CCc1nnc(NC(=O)CSc2nnnn2C)s1,3.04
7,Cc1onc(-c2ccccc2Cl)c1C(=O)OCC(=O)Nc1cccc(S(=O)(=O)N2CCOCC2)c1,-5.62
8,Oc1ccc(/C=N/NP(=S)(c2ccccc2)c2ccccc2)c(O)c1O,3.92
9,O=C(O)c1cccc(C(=O)c2cccc(C(=O)O)c2)c1,9.19
10,O=C(NNC(=S)Nc1ccc(Br)cc1)c1ccccc1,14.3
11,CCOc1ccc2nc(NC(=O)CS(=O)(=O)c3ccccc3)sc2c1,4.38
12,COc1ccc(NC(=O)CN(C)C(=O)CN2C(=O)C3CCCCC3C2=O)cc1 (centres unmarked),-11.9
13,Cc1ccccc1NC(=O)C(c1ccccc1)C1CCCC1 (centres unmarked),6.52
14,CCc1nc(SCC(=O)Nc2nnc(CC)s2)c2c(=O)n(C)c(=O)n(C)c2n1,4.23
15,CC1CCCCN1C(=O)CSc1nnc(Cc2ccccc2)n1C (centres unmarked),21.7
16,O=C(NCCCN1CCCC1)c1cc(Sc2ccc(F)cc2)nc2ccccc12,-74.1
17,CC(C)(C)c1ccc(OCC(=O)NCc2ccco2)c(Br)c1,-18.3
18,CCOc1ccc2c(c1)C(N(CCN1CCOCC1)C(=O)Nc1ccccc1)CC(C)(C)O2 (centres unmarked),-19.1
19,Cc1ccc(-c2nnn(CC(=O)NC3CC4CCC3C4)n2)cc1 (centres unmarked),1.64
20,CC(C)[C@H](NC(=O)c1ccccc1)C(=O)OCC(=O)NCCC1=CCCCC1,-29.5
21,Cn1cc(S(=O)(=O)N2CCc3ccccc32)cc1C(=O)NC(C)(C)C,-1.54
22,CC1=C(C(=O)OCC2CCCCC2)C(c2ccc(F)cc2)NC(=O)N1 (centres unmarked),15.6
23,COc1ccc(C2=[N+](C)CCn3cccc32)c(OC)c1.[I-],9.68

row,Structure (SMILES),"hERG current change (%, negative = inhibition) at 10uM [%]"
1,Cc1cc(Nc2ccc(N3CCOCC3)cc2)c2cccc(C)c2n1.Cl,-56.6
2,COc1ccc(Cl)cc1NC(=O)CS(=O)(=O)c1cccc2nsnc12,-2.44
3,O=C1N(Nc2ccccc2)C(c2ccc(Br)cc2)C12CCCCC2 (centres unmarked),21
4,COCCN(C(=O)CSc1nc(-c2ccccc2)cn1N)c1c(N)n(Cc2ccccc2)c(=O)[nH]c1=O,-9.07
5,CCN1CCCc2cc(CN(CCN3CCOCC3)C(=S)Nc3ccc(OC)c(OC)c3)ccc21,13
6,Cc1cccc(NNC(=O)c2c(F)cccc2Cl)c1,11.3
7,Cc1cc(C(=O)N/N=C/c2cccn2C)n[nH]1,-18.9
8,CC(C)OC(=O)c1nnc(Cc2ccc(F)cc2)o1,-3.8
9,COc1cccc(OC)c1NC(=O)C1CCCN1C(=O)NCc1ccccc1 (centres unmarked),2.56
10,COc1ccc(OC(=O)Cc2cccc3ccccc23)cc1,13.5
11,CC1CCCCC12NC(=O)N(CC(=O)OCC(=O)c1ccc(OC(F)F)cc1OC(F)F)C2=O (centres unmarked),-47
12,Cc1cccc(/C=N\Nc2cn[nH]c(=O)c2Cl)c1,14.2
13,O=C(Nc1cc(C(F)(F)F)ccc1N1CCOCC1)c1cccc(F)c1,-13.3
14,CCN(CC)C(=O)CN(C#N)c1nc(OC)nc(N(C)C)n1,7.99
15,CC(=O)c1ccc(N2CCN(CC(=O)NCc3ccccc3)CC2)cc1,-44.3
16,CC(=O)Nc1cccc(OCCCNC(=O)C2CCC2)c1,14.7
17,CCOC(=O)C1=C(c2ccccc2)NC(SCC(=O)Nc2cccc(C)c2)=C(C#N)C1c1ccco1 (centres unmarked),-5.87
18,O=C(CSc1ccc(Cl)cc1)Nc1ccc(N2CCN(C(=O)c3ccc(Cl)cc3)CC2)cc1,0.824
19,CCOC(=O)C1CCCN(C(=O)C2CCN(S(=O)(=O)CC)CC2)C1 (centres unmarked),5.04
20,CCn1ncc(/C=N\NC(=O)Cc2ccc([N+](=O)[O-])cc2)c1C,-19.2
21,C/C(=N\NC(=O)c1ccccc1O)C1C(=O)c2ccccc2C1=O,-0.25
22,O=C(CCCn1c(=S)[nH]c2cc3c(cc2c1=O)OCO3)N1CCN(c2ccccc2)CC1,-14
23,O[C@@H]1CCCN2CCc3c([nH]c4ccccc34)[C@H]12,10.9

row,Structure (SMILES),"hERG current change (%, negative = inhibition) at 10uM [%]"
1,CC(C)CCN1CCN(Cc2cccs2)CC1CCO (centres unmarked),-10.7
2,COc1ccc(CNC(=O)CCC(=O)Nc2cccnc2)cc1,15.8
3,Cc1cccc(C)c1NC(=O)CCCN1C(=O)C(c2ccccc2)Oc2cccnc21 (centres unmarked),17.3
4,O=C(NCCCN1CCOCC1)c1ccc(Cl)s1,-13.5
5,Cc1ccccc1N1CCN(S(=O)(=O)CC23CCC(CC2=O)C3(C)C)CC1 (centres unmarked),11.8
6,O=S(=O)(NCc1ccc(Cl)cc1)NCc1ccccc1F,3.81
7,CCCc1nnc(NC(=O)CCC(=O)NCc2ccccc2)s1,18.8
8,COC(=O)c1ccc(/C=N/Nc2nc(-c3ccccc3)cs2)cc1,15.4
9,O=C(NCc1ccc(F)cc1)C1CCN(S(=O)(=O)c2ccc(Br)s2)CC1,-21
10,CCc1nc2ccccc2c(=O)n1NC(=O)c1c(O)c2cccc3c2n(c1=O)CCC3,20.9
11,O=P(Oc1ccccc1)(Oc1ccccc1)C(O)c1ccc(Cl)cc1 (centres unmarked),4.7
12,Cc1ccccc1CN1CCN(CC2CC2)CC1CCO (centres unmarked),-4.79
13,N#Cc1c(SCC(=O)Nc2nccs2)sc2c(O)cc(=O)[nH]c12,7.55
14,CC(C)CCn1c(NCCc2ccccc2)nc2c1c(=O)n(C)c(=O)n2C,-18.3
15,CCOC(=O)c1cc(=O)[nH]c2ccccc12,19
16,COc1ccc(NP(=O)(Oc2ccc(Cl)cc2)Oc2ccc(Cl)cc2)cc1OC,-16.6
17,Cc1cc(S(=O)(=O)NCc2cccnc2)ccc1-n1cnnn1,-28.7
18,Cc1c(CCC(=O)NCC(=O)NCC(=O)O)c(=O)oc2cc3oc4c(c3cc12)CCCC4,4.87
19,Cc1ccc(S(=O)(=O)Nc2nc(C)cc(-n3nc(C)cc3C)n2)cc1,-2.61
20,CC(=O)Nc1cccc(NC(=O)Nc2cccc(F)c2)c1,9.29
